Measurements taken from PubChem BioAssay AID1346428 (National Center for Advancing Translational Sciences (NCATS), 2018).
Where “and” joins values, the source holds several entries; their conditions need not be identical. Identical values can stand only once. Hit rate of the full screen: of about 48,000 compounds, about 1,200 (2.5%) were called active. About 2% were inconclusive and are not listed.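 How the source made its calls: active means activation of at least 60% and not above a set upper limit (about 1 call in 100 departs from these limits); inconclusive means activation of 40% to 60%, or above that upper limit; inactive means activation under 40%.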 The list shows a part of the results.

Target: Probable G-protein coupled receptor 32 (Homo sapiens) (UniProt O75388)
Assay: qHTS for Agonists of Human Resolvin D1 Receptor DRV1; further: 0% is about no effect
Conditions: CHO-K1 GPR32 beta-arrestin PathHunter luminescence, 90 min; at 76.9 µM; hits give high values; zero percent set by DMSO-only wells
How it was run: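 Using DMSO wells as EC0, agonist-induced signal was taken as chemiluminescence from beta-Gal reconstituted upon beta-arrestin recruitment to GPR32 in CHO-K1 cells after 90 min compound treatment.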

Sequence of UniProt O75388 (O75388 whole entry, looked up): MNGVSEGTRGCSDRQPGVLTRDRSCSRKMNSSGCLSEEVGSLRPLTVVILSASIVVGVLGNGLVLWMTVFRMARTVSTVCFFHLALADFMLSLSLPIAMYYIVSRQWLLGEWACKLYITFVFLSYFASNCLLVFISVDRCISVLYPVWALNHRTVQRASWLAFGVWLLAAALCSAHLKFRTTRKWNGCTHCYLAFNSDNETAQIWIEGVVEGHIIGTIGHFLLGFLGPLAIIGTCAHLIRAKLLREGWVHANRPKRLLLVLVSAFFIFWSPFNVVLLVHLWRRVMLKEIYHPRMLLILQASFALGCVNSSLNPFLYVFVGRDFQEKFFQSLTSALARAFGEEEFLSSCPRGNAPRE

SMILES | activation
COC(=O)c1ccccc1NC(=O)Cn1c(=O)n(CCC(=O)NCc2ccccc2OC)c(=O)c2ccccc21 | inactive: -7.66%
Cc1cccc(NC(=O)CCN2CCN(c3ccccc3F)CC2)c1 | inactive: -6.55%
CCOC(=O)c1c(S(=O)(=O)NCC(=O)N2CCN(c3cc(C)ccc3C)CC2)c(C)n(C)c1C | inactive: -1.65%
c1ccc2occc2c1 | inactive: -15.3%
COc1ccccc1N1CCN(C(=O)C(CCSC)NS(=O)(=O)c2ccc3c(c2)oc(=O)n3C)CC1 (centres undefined) | inactive: -10.6%
CC(C)Oc1ccc(CNC(=O)CCCN2C(=O)CCn3nc(-c4cccn4C)cc32)cc1 | inactive: -6.04%
COc1ccc(CC(=O)Nc2sc3c(c2C(=O)Nc2cccc(Cl)c2)CCCCC3)cc1 | inactive: 16.7%
CCC(=O)N1CCc2cc(S(=O)(=O)CCC(=O)Nc3ccc(OC(F)(F)F)cc3)ccc21 | active: 65.4%
COc1ccc2nc3oc(C(=O)N4CCN(c5cc(C)ccc5C)CC4)cc3cc2c1 | inactive: -5.17%
O=C1NCCN1CCN1CCC(c2cn(-c3ccc(F)cc3)c3ccc(Cl)cc23)CC1 | inactive: 41.4%
Cc1nn(-c2ccccc2)c2c1N(CCCC(=O)NCc1ccc(N(C)C)cc1)C(=O)CS2 | inactive: -12.7%
O=C(c1ccco1)n1nc(-c2ccccc2)nc1NCc1ccc(Cl)cc1 | inactive: -1.12%
CCC(=O)N1c2ccccc2CC1C(=O)N1CCN(c2cccc(Cl)c2)CC1 (centres undefined) | inactive: -13.8%
CCc1ccc(NCc2cc3ccc(OC)cc3n(CC(=O)Nc3ccc(F)cc3F)c2=O)cc1 | inactive: -35.9%
COc1cccc(CNCCSc2nnnn2C)c1OCc1ccccc1Cl | inactive: 30.9%
Cc1nn2c(=O)cc(COC(=O)c3ccco3)nc2s1 | inactive: -8.97%
O=C(Nc1ccc(F)cc1)N1CCN(c2ccccc2F)CC1 | inactive: 19.1%
COc1cccc(CNS(=O)(=O)c2ccc3c(c2)CCN3C(=O)C2CCC2)c1 | inactive: 34.5%
CCOC(=O)c1ccc(-n2c(CCC(=O)O)ccc2-c2ccc(Br)cc2)cc1 | inactive: -10.9%
COc1ccc(Cn2c(SCC(=O)NCc3ccc(Cl)cc3)nc3ccsc3c2=O)cc1 | inactive: -0.867%
COc1ccc(N2C(=O)CS(=O)(=O)C23C(=O)N(Cc2cccc(F)c2)c2ccccc23)cc1OC (centres undefined) | inactive: -9.9%

SMILES | activation
Cc1ccc(C)c(S(=O)(=O)c2nnn3c2nc(Nc2ccc(C)c(C)c2)c2sccc23)c1 | inactive: -4.42%
O=C(CC(c1cccs1)N1Cc2ccccc2C1=O)Nc1ccc(F)c(F)c1 (centres undefined) | inactive: -4.85%
Cc1cc(=O)[nH]c2nnc(SCc3ccc(F)cc3)n12 | inactive: 31.3%
Cc1cc(Cl)ccc1OCC(=O)Nc1c(Cl)ccc2nsnc12 | inactive: 7.31%
CC(C)(C)CC(C)(C)c1ccc(O)c(-n2nc3ccccc3n2)c1 | inactive: 35.7%
O=C(Nc1c(C(=O)N2CCN(c3ccccc3)CC2)oc2ccccc12)c1ccc(Br)o1 | inactive: -31.3%
O=C(NCc1cccs1)c1ccc(Cn2c(SCc3ccccc3)nc3cccnc32)cc1 | inactive: -2.77%
CCOC(=O)c1cccc(NC(=O)NCc2cccn2Cc2ccccc2)c1 | inactive: -5.81%
Cc1ccc2occ(CC(=O)N(Cc3ccccc3Cl)C3CCS(=O)(=O)C3)c2c1 (centres undefined) | inactive: -13.8%
CC1CCC(Nc2nc3c(-c4ccc(Cl)cc4)nnn3c3ccccc23)CC1 (centres undefined) | inactive: 18.7%
Cc1ccc(Cn2cc(CCC(=O)NC3CCC(C)CC3)c3ccccc32)cc1 (centres undefined) | inactive: -37.4%
CC(=O)c1ccc(NC(=O)CN2C(=O)CCc3ccccc32)cc1 | inactive: -3.54%
CC(=O)/C=C/C=C1/C2CCC(C2)C1(C)C (centres undefined) | inactive: -13.9%
O=C(CSc1oc(-c2ccccc2)nc1S(=O)(=O)c1ccc(Cl)cc1)Nc1ccc(F)cc1 | inactive: -3.08%
CC(=O)Nc1ccc(/C=C/c2nc(-c3ccccc3O)n(-c3ccccc3)n2)cc1 | inactive: 47.1%
COc1ccccc1CNS(=O)(=O)c1ccc2c(c1)NC(=O)C(C)C(=O)N2 (centres undefined) | inactive: -16.8%
Cn1c(=O)oc2cc(S(=O)(=O)N3CCCC(C(=O)NCCc4ccc(Cl)cc4)C3)ccc21 (centres undefined) | inactive: 10%
O=C(Cn1cc(SCc2ccc(C(F)(F)F)cc2)c2ccccc21)N1CCOCC1 | inactive: -9.9%
Cc1cccc(-c2nc(C)c(CCNC(=O)C(=O)Nc3cccc(Cl)c3C)s2)c1 | inactive: -24.6%
COC(=O)c1ccccc1NC(=O)Cn1c(CCC(=O)O)ccc1-c1cccs1 | inactive: -11.2%
Cc1ccc(-c2nc(-c3cc4c([nH]c3=O)CC(C)(C)CC4=O)sc2C)cc1 | inactive: 46.5%

SMILES | activation
CCCCSc1nc(-c2ccc(OC)cc2)ccc1C#N | inactive: -8.26%
O=C(NCc1ccccc1)c1cc2sccc2n1Cc1ccc(Cl)cc1 | inactive: 38.5%
COC(=O)CSc1ncc2c(n1)-c1ccccc1N(Cc1ccccc1C)S2(=O)=O | inactive: -9.31%
CCOc1ccc(N(C)C(=O)CS(=O)(=O)c2cccc3nsnc23)cc1 | inactive: -7.08%
O=C1CCC(N2C(=O)c3ccccc3C2=O)C(=O)N1 (centres undefined) | inactive: -26.5% and inactive: -2.82%
CCC1CN(C(=O)N2CCC(C(=O)NCc3ccc(N(C)C)cc3)CC2)c2ccccc2O1 (centres undefined) | inactive: -22.5%
CCCOc1cccc(C(=O)Nc2cccc(-c3nc4ncccc4o3)c2C)c1 | inactive: 22.1%
CCOC(=O)c1ccc(N2CCN(c3cc(C)ccc3C)CC2)c(NC(=O)Nc2ccc(CC)cc2)c1 | inactive: -3.56%
COc1cccc(Nc2ccc3cc(S(=O)(=O)N4CCC(C)CC4)ccc3n2)c1 | inactive: -10.6%
CCCCC(=O)NCc1nc2cccnc2n1Cc1ccc(OC)cc1 | inactive: -18.8%
CC(=O)c1cccc(NC(=O)C2CCN(C(=O)c3cnn(-c4ccccc4)c3-n3cccc3)CC2)c1 | inactive: -10.5%
Cc1c(C(=O)NCc2ccccc2Cl)sc2nc3n(c(=O)c12)CCCCC3 | inactive: 1.99%
Cc1cn2c(=O)cc(COC(=O)c3cccc(NC(=O)c4ccc(C(C)(C)C)cc4)c3)nc2s1 | inactive: -8.34%
CCn1cc2nc(SCC(=O)Nc3ccc(OC)c(OC)c3)n(Cc3ccc(Cl)cc3)c(=O)c2n1 | inactive: -2.75%
Cc1nn2c(=O)cc(COC(=O)c3cccc(NC(=O)CCc4ccccc4)c3)nc2s1 | inactive: -14.4%
Cc1ccccc1-c1nc2scc(CCNS(=O)(=O)c3ccccc3)n2n1 | active: 75.3%
COc1ccc(-c2cc(-c3ccc(F)cc3)nc3c2COc2ccc(F)cc2-3)cc1 | inactive: -7.64%
CCOc1ccc(-n2c(/C=C/c3cccc(F)c3)nc3cc(OC)c(OC)cc3c2=O)cc1 | inactive: 30.1%
COc1ccc(-c2oc3ncn4nc(-c5ccccc5O)nc4c3c2-c2ccc(OC)cc2)cc1 | inactive: -12.3%
O=C1CN(C(=O)COc2ccc(Cl)cc2)C(c2ccccc2)c2cc(Br)ccc2N1 (centres undefined) | inactive: -20.6%
O=C(NCc1ccccc1)C1CCCN(S(=O)(=O)c2cccc3nsnc23)C1 (centres undefined) | inactive: -13.2%

SMILES | activation
CC(C)(C)OC(=O)N1CCC(c2c(C(=O)Nc3ccc4c(c3)OCCO4)cnn2-c2ccc(Cl)cc2)CC1 | inactive: -15.6%
CCOc1ccc(NC(=O)CN2C(=O)CC(C)Sc3ccccc32)cc1 (centres undefined) | inactive: 6.74%
COc1ccc(CCNC(=O)C(CC(C)C)N2Cc3ccccc3C2=O)c(OC)c1OC (centres undefined) | inactive: -5.7%
CCn1cc(CCC(=O)NCc2ccc(C)cc2)c2ccccc21 | inactive: -31.4%
Cc1ccc2c(c1)C(Cc1ccccc1F)C(=O)N2 (centres undefined) | inactive: 39.9%
COc1ccc(C)cc1NC(=O)C1CCN(S(=O)(=O)c2ccc3[nH]c(=O)oc3c2)CC1 | inactive: 4.65%
Cc1cccc(C(=O)Nc2cc(-c3nc4cccnc4s3)ccc2C)c1 | inactive: -5.01%
COc1cc2c(=O)n(Cc3ccccc3Cl)c(=O)n(CC(=O)Nc3ccc(C)c(C)c3)c2cc1OC | inactive: 5.82%
CC(C)Oc1ccccc1C1C=C(C(=O)O)Nc2ncnn21 (centres undefined) | inactive: -0.528%
COc1ccc(CCn2c3c(c(=O)[nH]c2=O)C(NC(=O)c2ccccc2F)(C(F)(F)F)C(=O)N3)cc1OC (centres undefined) | inactive: 6.87%
COc1ccccc1-c1nc(SCC(=O)NCc2ccc(C)cc2)c2c(=O)n(C)c(=O)n(C)c2n1 | inactive: 9.13%
Cc1ccc(-c2ccc(=O)n(CC(=O)Nc3ccc(C)cc3Cl)n2)cc1 | inactive: -20.9%
O=C(COc1ccccc1F)Nc1ccc2oc(-c3cccc(Cl)c3)nc2c1 | inactive: -5.35%
Cc1cccc(CN2C(=O)N(c3ccc(C(C)C)cc3)S(=O)(=O)c3ccccc32)c1 | inactive: 18.9%
COc1cccc(/C=C/c2nc(C#N)c(NCCc3ccccc3)o2)c1 | inactive: -12%
COc1ccc(C2C=C(c3ccccc3)Nc3nc(NC(=O)c4cccc([N+](=O)[O-])c4)nn32)cc1 (centres undefined) | inactive: -18.2%
O=C1[C@@H]2[C@H]3CC[C@H](C3)[C@@H]2C(=O)N1CCCCN1CCN(c2ncccn2)CC1 | inactive: 5.38%
COc1ccc(C(=O)Nc2ccc3oc(-c4cccnc4)nc3c2)cc1 | inactive: 6.81%
Clc1cccc(N2CCN(c3nc4ccccc4n4nnnc34)CC2)c1 | inactive: -14%
Cc1ccc(OCC(=O)Nc2cccc(-c3nc4ccccc4s3)c2)cc1 | inactive: -15.8%
CCOC(=O)c1ccc(NC(=O)C2CCCN(c3ncnc4onc(-c5ccc(F)cc5)c34)C2)cc1 (centres undefined) | inactive: -13.6%
